The supplement of paper PMC3334620
In all, about 33,000 sequences were measured (“E-score (-0.5 to 0.5)”: median about -0.056, highest 2% from about 0.38 on). Some of the results follow.

What follows are sequences tested against Stb4 (UniProt P50104) (assay: PBM E-score (8-mer binding enrichment) (E-score (-0.5 to 0.5)); higher = stronger / more preferred TF binding; most listed sequences are background and not binding sites). Details: protein concentration: 200 nM; construct: GST-DNA-binding domain.
Experimental: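 Universal 'all 10-mer' protein binding microarrays (Agilent AMADID 015681) probed with GST-tagged S. cerevisiae TFs (full-length or DBD) made by in vitro transcription/translation (PURExpress), about 100-200 nM. Bound TF was detected with fluorescent anti-GST. Each ungapped 8-mer (which stands for itself and its reverse complement) is scored by the PBM enrichment score (E-score), a modified Wilcoxon-Mann-Whitney statistic from -0.5 to +0.5, computed with the Universal PBM Analysis Suite. Scale: above 0.35 generally sequence-specific binding.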

| Sequence | PBM E-score |
| --- | --- |
| GCAGCCGA | 0.396 |
| TCGGGTCA | 0.427 |
| CGCTATAA | -0.0292 |
| AAGCGTGT | -0.22 |
| AGTTGTTA | -0.169 |
| ATCCGCCG | 0.371 |
| AGCCAGTG | -0.089 |
| AACACTCT | -0.0232 |
| CCCTGCGG | 0.0663 |
| AAAAGTGG | 0.0396 |
| ACAATGTC | 0.0466 |
| AGTACTAT | -0.119 |
| CCAAATGC | -0.0702 |
| ATTACTCA | -0.137 |
| ACTATGCC | 0.0259 |
| CCCGATGA | 0.324 |
| TATGGCGA | -0.194 |
| ATAGAGAA | -0.0133 |
| ACAGGCAC | -0.185 |
| CAGTCAAA | -0.0991 |
| CTAATCGA | -0.105 |
| ACTCTGAA | 0.0451 |
| AATACCGA | 0.35 |
| CGTGACTA | -0.158 |
| CAATGCAG | -0.155 |

| Sequence | PBM E-score |
| --- | --- |
| CTTACAGA | -0.173 |
| AGCGCAGC | -0.0705 |
| AGATAAGA | 0.0745 |
| AGTTAACC | 0.141 |
| AGGAGCAT | -0.0343 |
| CGAGACGC | 0.14 |
| AATACATT | -0.112 |
| CGCATAGA | -0.24 |
| CACTTGAA | -0.0917 |
| AAACGCTT | -0.109 |
| TCTTAACA | -0.223 |
| CCCCCTTA | -0.265 |
| AGCTTGAC | -0.00728 |
| GAATCACA | 0.0756 |
| CCCTACTC | 0.0985 |
| AGTGACAC | -0.0164 |
| AATCTACA | -0.0631 |
| AGATACCG | 0.28 |
| ACGTAGGC | -0.239 |
| GGCGTTAC | -0.00334 |
| ACCTTAGG | -0.115 |
| ACGAAGGG | -0.343 |
| CCGTCACA | 0.171 |
| TACTTTCA | 0.0654 |
| CTTACATA | -0.119 |

| Sequence | PBM E-score |
| --- | --- |
| CAATCGTC | -0.187 |
| AAAGCTCT | -0.00412 |
| AACCTATC | -0.0421 |
| AGCGGAGG | -0.0445 |
| CTTGGCTC | -0.031 |
| ATTGAATG | -0.102 |
| GACCGATC | 0.133 |
| AAGGTCCA | -0.0963 |
| GTGTTGAA | -0.185 |
| CATAGGTC | -0.228 |
| GGGCCCCA | -0.13 |
| AGAAGCCC | 0.151 |
| CGCAGACG | -0.0467 |
| ATCCTGCA | -0.184 |
| AGTCCTCA | -0.00786 |
| CAAGTACG | -0.234 |
| CGCTTAAC | -0.0476 |
| CAGACGAG | -0.12 |
| CCGCGCAG | 0.126 |
| CCGTATCG | 0.158 |
| GGGCCACA | -0.0749 |
| ATTCGCGC | -0.0127 |
| CCGTCGTC | 0.103 |
| CCCTATAC | -0.154 |
| CCCGGTGC | 0.188 |

| Sequence | PBM E-score |
| --- | --- |
| ATCGGACA | 0.196 |
| ACCCCAAG | -0.022 |
| CGGAAGCA | 0.435 |
| ATTGGCGG | 0.106 |
| TCCGCAAA | 0.221 |
| GCGGCTGA | 0.0348 |
| CGGATTAG | 0.246 |
| AAGATCTA | -0.154 |
| AACGTCCA | -0.063 |
| GACCTTAC | 0.113 |
| CGTGAATA | -0.097 |
| AGTGGTCG | 0.057 |
| CCTATACG | -0.294 |
| TAGTTCAA | 0.0204 |
| GGAGTCCC | 0.063 |
| AACTCACG | -0.054 |
| TAGTGAGA | -0.0195 |
| AAAAAATG | 0.117 |
| GTTATAGA | -0.202 |
| CGGCGGTA | 0.299 |
| GGGAAGGA | 0.0823 |
| CCAACGGC | -0.0203 |
| ATCTAACA | -0.00015 |
| ATGGAGCG | -0.159 |
| ACTCCCCT | -0.00521 |

| Sequence | PBM E-score |
| --- | --- |
| CGCCACAA | -0.0226 |
| GATCCTAC | -0.0241 |
| CAAAGTGC | -0.181 |
| GGGGCCGA | 0.174 |
| CTGTGGCA | -0.0921 |
| TAGATCCA | -0.148 |
| AAGGTACT | -0.07 |
| ACTATCAC | -0.0552 |
| CGTGATTC | 0.114 |
| ACGGGGGC | -0.0265 |
| TCGCCACA | -0.0788 |
| CATAGTAA | -0.149 |
| CCTTTGAA | -0.203 |
| ATCTGGCG | -0.0805 |
| CCTGTTAG | -0.0712 |
| ACTCGTAA | 0.0295 |
| CCAACAGC | -0.0537 |
| GAGGCGGA | 0.213 |
| AAGTACCC | 0.214 |
| CATATATC | -0.0674 |
| AGGTGTAA | -0.175 |
| ATCTCTGG | -0.184 |
| CGCTGGTC | -0.0414 |
| TGGTGACA | -0.15 |
| CCAGACAG | -0.115 |

| Sequence | PBM E-score |
| --- | --- |
| ATCGCGAT | -0.122 |
| AATACCCG | 0.431 |
| CTGGCAAA | -0.114 |
| ATCTTCGA | -0.171 |
| GTGCGATA | -0.131 |
| GCGTGAAA | -0.015 |
| ACTCCAAT | -0.176 |
| ATGACTGC | -0.129 |
| GAGTGTGC | 0.162 |
| TCCTCCAA | -0.181 |
| CTGAACTC | -0.175 |
| ATGACTTG | 0.0236 |
| ACTATGTA | -0.199 |
| GCCCACGA | -0.238 |
| AGTGCAAG | -0.153 |
| AGCGAGTC | -0.18 |
| ATGGCCTC | 0.0882 |
| AACCGAGC | 0.418 |
| CGGCCGAG | 0.336 |
| CCCCAAGC | 0.144 |
| ACAACGCC | -0.0359 |
| TCAATAGA | -0.268 |
| GAGAATGC | 0.0088 |
| CCTAGGGA | 0.0122 |
| CACAATTC | -0.0479 |

| Sequence | PBM E-score |
| --- | --- |
| GAGCGCCC | 0.0527 |
| TACATAAA | -0.216 |
| AGCTATAT | 0.0653 |
| CGCTGAAA | -0.0375 |
| CCCTTCCC | 0.126 |
| TCAATTCA | -0.11 |
| GCCTCCTA | -0.198 |
| GGGCGAGA | -0.0235 |
| CCGCGAGG | 0.179 |
| CTCTTCGA | -0.104 |
| AGTCTCCC | 0.00962 |
| AGCGGACG | 0.0646 |
| GTACGGTA | 0.148 |
| GGCAGGAA | -0.0711 |
| ATCCGAAA | 0.48 |
| ACCAAGAC | 0.0464 |
| GTAGGGAC | -0.147 |
| GAGGCGGC | 0.0844 |
| ACTGGTGC | -0.162 |
| TAGCCTAA | -0.244 |
| CATATGAG | -0.0886 |
| GCGTGCAA | -0.138 |
